Where a chain is given by its changes, count along the chain named. The list shows a part of the results.
T1: RBFOX1 RRM RbFoxmut (Fox-RRM*) (Homo sapiens, UniProt Q9NWB1 109-208, R118D;E147R;N151S;E152T)
T1 sequence: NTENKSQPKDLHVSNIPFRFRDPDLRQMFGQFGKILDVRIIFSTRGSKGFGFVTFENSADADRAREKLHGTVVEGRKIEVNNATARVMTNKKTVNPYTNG

B1: CGGUGGG (DNA:RNA)
RNA: GGGAGACCGGAAUUCAGAUUGUCCCGGUGGGUUAAAUCCCGUCGUAGCCACCA
DNA 1: CAATCTGAATTCCGGTCTCCC
DNA 2: TGGTGGCTACGACGGGATT
B2: UAGUGGA (DNA:RNA)
RNA: B1 RNA with C25U, G26A, G31A
DNA 1: CAATCTGAATTCCGGTCTCCC
DNA 2: TGGTGGCTACGACGGGATT
B3: UUCGGCC (DNA:RNA)
RNA: B1 RNA with C25U, G26U, G27C, U28G, G30C, G31C
DNA 1: CAATCTGAATTCCGGTCTCCC
DNA 2: TGGTGGCTACGACGGGATT
B4: AGUGGCU (DNA:RNA)
RNA: B1 RNA with C25A, G27U, U28G, G30C, G31U
DNA 1: CAATCTGAATTCCGGTCTCCC
DNA 2: TGGTGGCTACGACGGGATT
B5: AAGUUAU (DNA:RNA)
RNA: B1 RNA with C25A, G26A, G29U, G30A, G31U
DNA 1: CAATCTGAATTCCGGTCTCCC
DNA 2: TGGTGGCTACGACGGGATT
B6: AAUCUUG (DNA:RNA)
RNA: B1 RNA with C25A, G26A, G27U, U28C, G29U, G30U
DNA 1: CAATCTGAATTCCGGTCTCCC
DNA 2: TGGTGGCTACGACGGGATT
B7: GCUGCAU (DNA:RNA)
RNA: GGGAGACCGGAAUUCAGAUUGUCCGCUGCAUUUAAAUCCCGUCGUAGCCACCA
DNA 1: CAATCTGAATTCCGGTCTCCC
DNA 2: TGGTGGCTACGACGGGATT
B8: AAGCGCA (DNA:RNA)
RNA: B1 RNA with C25A, G26A, U28C, G30C, G31A
DNA 1: CAATCTGAATTCCGGTCTCCC
DNA 2: TGGTGGCTACGACGGGATT
B9: UCGAUCC (DNA:RNA)
RNA: B1 RNA with C25U, G26C, U28A, G29U, G30C, G31C
DNA 1: CAATCTGAATTCCGGTCTCCC
DNA 2: TGGTGGCTACGACGGGATT
B10: CAGGAAA (DNA:RNA)
RNA: B1 RNA with G26A, U28G, G29A, G30A, G31A
DNA 1: CAATCTGAATTCCGGTCTCCC
DNA 2: TGGTGGCTACGACGGGATT
B11: AUCCCCU (DNA:RNA)
RNA: B7 RNA with G25A, C26U, U27C, G28C, A30C
DNA 1: CAATCTGAATTCCGGTCTCCC
DNA 2: TGGTGGCTACGACGGGATT
B12: GUGUCAU (DNA:RNA)
RNA: B7 RNA with C26U, U27G, G28U
DNA 1: CAATCTGAATTCCGGTCTCCC
DNA 2: TGGTGGCTACGACGGGATT
B13: UUAAUCC (DNA:RNA)
RNA: GGGAGACCGGAAUUCAGAUUGUCCUUAAUCCUUAAAUCCCGUCGUAGCCACCA
DNA 1: CAATCTGAATTCCGGTCTCCC
DNA 2: TGGTGGCTACGACGGGATT
B14: AAAUUAC (DNA:RNA)
RNA: B13 RNA with U25A, U26A, A28U, C30A
DNA 1: CAATCTGAATTCCGGTCTCCC
DNA 2: TGGTGGCTACGACGGGATT
B15: GACAUCC (DNA:RNA)
RNA: B13 RNA with U25G, U26A, A27C
DNA 1: CAATCTGAATTCCGGTCTCCC
DNA 2: TGGTGGCTACGACGGGATT
B16: CCGUUUC (DNA:RNA)
RNA: B1 RNA with G26C, G29U, G30U, G31C
DNA 1: CAATCTGAATTCCGGTCTCCC
DNA 2: TGGTGGCTACGACGGGATT
B17: GAAUCGU (DNA:RNA)
RNA: B7 RNA with C26A, U27A, G28U, A30G
DNA 1: CAATCTGAATTCCGGTCTCCC
DNA 2: TGGTGGCTACGACGGGATT
B18: UGAUCCA (DNA:RNA)
RNA: B13 RNA with U26G, A28U, U29C, C31A
DNA 1: CAATCTGAATTCCGGTCTCCC
DNA 2: TGGTGGCTACGACGGGATT
B19: CCCAUCC (DNA:RNA)
RNA: B13 RNA with U25C, U26C, A27C
DNA 1: CAATCTGAATTCCGGTCTCCC
DNA 2: TGGTGGCTACGACGGGATT
B20: CAUAUAU (DNA:RNA)
RNA: B7 RNA with G25C, C26A, G28A, C29U
DNA 1: CAATCTGAATTCCGGTCTCCC
DNA 2: TGGTGGCTACGACGGGATT
B21: GGUAACA (DNA:RNA)
RNA: B7 RNA with C26G, G28A, C29A, A30C, U31A
DNA 1: CAATCTGAATTCCGGTCTCCC
DNA 2: TGGTGGCTACGACGGGATT
B22: CCCUUUC (DNA:RNA)
RNA: B1 RNA with G26C, G27C, G29U, G30U, G31C
DNA 1: CAATCTGAATTCCGGTCTCCC
DNA 2: TGGTGGCTACGACGGGATT
B23: ACUGAAG (DNA:RNA)
RNA: B7 RNA with G25A, C29A, U31G
DNA 1: CAATCTGAATTCCGGTCTCCC
DNA 2: TGGTGGCTACGACGGGATT
B24: AUUAGGU (DNA:RNA)
RNA: B1 RNA with C25A, G26U, G27U, U28A, G31U
DNA 1: CAATCTGAATTCCGGTCTCCC
DNA 2: TGGTGGCTACGACGGGATT
B25: UUAGCUG (DNA:RNA)
RNA: B13 RNA with A28G, U29C, C30U, C31G
DNA 1: CAATCTGAATTCCGGTCTCCC
DNA 2: TGGTGGCTACGACGGGATT
B26: CGGCGCU (DNA:RNA)
RNA: B1 RNA with U28C, G30C, G31U
DNA 1: CAATCTGAATTCCGGTCTCCC
DNA 2: TGGTGGCTACGACGGGATT
B27: CAGUAAU (DNA:RNA)
RNA: B1 RNA with G26A, G29A, G30A, G31U
DNA 1: CAATCTGAATTCCGGTCTCCC
DNA 2: TGGTGGCTACGACGGGATT
B28: CUUGUAA (DNA:RNA)
RNA: B7 RNA with G25C, C26U, C29U, U31A
DNA 1: CAATCTGAATTCCGGTCTCCC
DNA 2: TGGTGGCTACGACGGGATT
B29: UAUAUAU (DNA:RNA)
RNA: B7 RNA with G25U, C26A, G28A, C29U
DNA 1: CAATCTGAATTCCGGTCTCCC
DNA 2: TGGTGGCTACGACGGGATT
B30: CACUAUG (DNA:RNA)
RNA: B1 RNA with G26A, G27C, G29A, G30U
DNA 1: CAATCTGAATTCCGGTCTCCC
DNA 2: TGGTGGCTACGACGGGATT
B31: GGUUAGG (DNA:RNA)
RNA: B1 RNA with C25G, G27U, G29A
DNA 1: CAATCTGAATTCCGGTCTCCC
DNA 2: TGGTGGCTACGACGGGATT

target: T1, RBFOX1 RRM RbFoxmut (Fox-RRM*); experiment: EMSA; HiTS-Eq, 1 nM pool, 10 min; buffer printed only for the single-RNA assays: 10 mM Tris pH 7.5, 150 mM NaCl, 3.4 mM EDTA, 0.001% NP-40, 30 C; details: tags: His6 N-terminal (pET28a); label: 5' 32P
Summary of the method: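 Purified RbFox RRM, wild type or mutant, was incubated for 10 min in 50 µL with 1 nM of a 5′-radiolabelled RNA pool carrying 7 randomized nucleotides, whose flanks were annealed to DNA oligonucleotides, over a series of increasing protein concentrations. Unbound RNA was resolved on 8% native PAGE, cut out, reverse-transcribed, barcoded by PCR and sequenced on an Illumina HiSeq 2500. Relative association constants were derived from changes in read counts for each RNA species versus the control reaction and normalised to the cognate motif.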

Binder | binding signal
B1 | 0.0723 KA relative to UGCAUGU
B2 | 0.086 KA relative to UGCAUGU
B3 | 0.156 KA relative to UGCAUGU
B4 | 0.144 KA relative to UGCAUGU
B5 | 0.118 KA relative to UGCAUGU
B6 | 0.0858 KA relative to UGCAUGU
B7 | 0.185 KA relative to UGCAUGU
B8 | 0.125 KA relative to UGCAUGU
B9 | 0.0544 KA relative to UGCAUGU
B10 | 0.0873 KA relative to UGCAUGU
B11 | 0.0663 KA relative to UGCAUGU
B12 | 0.103 KA relative to UGCAUGU
B13 | 0.0578 KA relative to UGCAUGU
B14 | 0.107 KA relative to UGCAUGU
B15 | 0.0501 KA relative to UGCAUGU
B16 | 0.118 KA relative to UGCAUGU

Binder | binding signal
B17 | 0.576 KA relative to UGCAUGU
B18 | 0.0765 KA relative to UGCAUGU
B19 | 0.0681 KA relative to UGCAUGU
B20 | 0.114 KA relative to UGCAUGU
B21 | 0.0743 KA relative to UGCAUGU
B22 | 0.0564 KA relative to UGCAUGU
B23 | 0.099 KA relative to UGCAUGU
B24 | 0.0926 KA relative to UGCAUGU
B25 | 0.12 KA relative to UGCAUGU
B26 | 0.0775 KA relative to UGCAUGU
B27 | 0.0996 KA relative to UGCAUGU
B28 | 0.159 KA relative to UGCAUGU
B29 | 0.0852 KA relative to UGCAUGU
B30 | 0.119 KA relative to UGCAUGU
B31 | 0.08 KA relative to UGCAUGU
